# In the supplement of paper PMC8728848:
# The list shows a part of the results.
# How the values were obtained:
# Experiment in all cases: glycan array binding signal (z-score within array); higher = stronger binding
# Settings in all cases: glycan notation: IUPAC condensed, linker removed
# [1] = biological target: Gal(b1-4)GlcNAc(b1-3)Gal(b1-4)GlcNAc(b1-3)Gal(b1-4)GlcNAc(b1-2)[Gal(b1-4)GlcNAc(b1-3)Gal(b1-4)GlcNAc(b1-3)Gal(b1-4)GlcNAc(b1-6)]Man(a1-6)[Gal(b1-4)GlcNAc(b1-3)Gal(b1-4)GlcNAc(b1-3)Gal(b1-4)GlcNAc(b1-2)Man(a1-3)]Man(b1-4)GlcNAc(b1-4)[Fuc(a1-6)]GlcNAc
# How it was run: (§1)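 Columns mapping to the same glycan were averaged after glycan names were converted to IUPAC-condensed notation. The data come from 3228 arrays in the Consortium for Functional Glycomics database, limited to those with an available protein sequence. Binding is reported as a within-array Z-score averaged across arrays of one protein sequence and across linkers.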
# [2] = biological target: Gal(b1-4)GlcNAc(b1-3)Gal(b1-4)GlcNAc(b1-3)Gal(b1-4)GlcNAc(b1-3)Gal(b1-4)GlcNAc(b1-2)Man(a1-3)[Gal(b1-4)GlcNAc(b1-3)Gal(b1-4)GlcNAc(b1-3)Gal(b1-4)GlcNAc(b1-3)Gal(b1-4)GlcNAc(b1-2)Man(a1-6)]Man(b1-4)GlcNAc(b1-4)GlcNAc
# How it was run: as §1
# [3] = biological target: Gal(b1-4)GlcNAc(b1-3)Gal(b1-4)GlcNAc(b1-3)Gal(b1-4)GlcNAc(b1-3)Gal(b1-4)GlcNAc(b1-2)Man(a1-3)[Gal(b1-4)GlcNAc(b1-3)Gal(b1-4)GlcNAc(b1-3)Gal(b1-4)GlcNAc(b1-3)Gal(b1-4)GlcNAc(b1-2)Man(a1-6)]Man(b1-4)GlcNAc(b1-4)[Fuc(a1-6)]GlcNAc
# How it was run: as §1
# [4] = biological target: Gal(b1-4)GlcNAc(b1-3)Gal(b1-4)GlcNAc(b1-3)Gal(b1-4)GlcNAc(b1-3)Gal(b1-4)GlcNAc(b1-2)[Gal(b1-4)GlcNAc(b1-3)Gal(b1-4)GlcNAc(b1-3)Gal(b1-4)GlcNAc(b1-3)Gal(b1-4)GlcNAc(b1-6)]Man(a1-6)[Gal(b1-4)GlcNAc(b1-3)Gal(b1-4)GlcNAc(b1-3)Gal(b1-4)GlcNAc(b1-3)Gal(b1-4)GlcNAc(b1-2)Man(a1-3)]Man(b1-4)GlcNAc(b1-4)[Fuc(a1-6)]GlcNAc
# How it was run: as §1
# [5] = biological target: Gal(b1-4)GlcNAc(b1-3)Gal(b1-4)GlcNAc(b1-3)Gal(b1-4)GlcNAc(b1-3)Gal(b1-4)GlcNAc(b1-3)Gal(b1-4)GlcNAc(b1-2)Man(a1-3)[Gal(b1-4)GlcNAc(b1-3)Gal(b1-4)GlcNAc(b1-3)Gal(b1-4)GlcNAc(b1-3)Gal(b1-4)GlcNAc(b1-3)Gal(b1-4)GlcNAc(b1-2)Man(a1-6)]Man(b1-4)GlcNAc(b1-4)GlcNAc
# How it was run: as §1
# [6] = biological target: Gal(b1-4)GlcNAc(b1-3)Gal(b1-4)GlcNAc(b1-3)Gal(b1-4)GlcNAc(b1-3)Gal(b1-4)GlcNAc(b1-3)Gal(b1-4)GlcNAc(b1-2)Man(a1-3)[Gal(b1-4)GlcNAc(b1-3)Gal(b1-4)GlcNAc(b1-3)Gal(b1-4)GlcNAc(b1-3)Gal(b1-4)GlcNAc(b1-3)Gal(b1-4)GlcNAc(b1-2)Man(a1-6)]Man(b1-4)GlcNAc(b1-4)[Fuc(a1-6)]GlcNAc
# How it was run: as §1
# [7] = biological target: Gal(b1-4)GlcNAc(b1-3)Gal(b1-4)GlcNAc(b1-3)Gal(b1-4)GlcNAc(b1-3)Gal(b1-4)GlcNAc(b1-3)Gal(b1-4)GlcNAc(b1-2)[Gal(b1-4)GlcNAc(b1-3)Gal(b1-4)GlcNAc(b1-3)Gal(b1-4)GlcNAc(b1-3)Gal(b1-4)GlcNAc(b1-3)Gal(b1-4)GlcNAc(b1-6)]Man(a1-6)[Gal(b1-4)GlcNAc(b1-3)Gal(b1-4)GlcNAc(b1-3)Gal(b1-4)GlcNAc(b1-3)Gal(b1-4)GlcNAc(b1-3)Gal(b1-4)GlcNAc(b1-2)Man(a1-3)]Man(b1-4)GlcNAc(b1-4)[Fuc(a1-6)]GlcNAc
# How it was run: as §1
# [8] = biological target: Gal(b1-4)GlcNAc(b1-3)Gal(b1-4)GlcNAc(b1-3)Gal(b1-4)GlcNAc(b1-3)Gal(b1-4)GlcNAc(b1-3)Gal(b1-4)GlcNAc(b1-3)Gal(b1-4)GlcNAc(b1-2)Man(a1-3)[Gal(b1-4)GlcNAc(b1-3)Gal(b1-4)GlcNAc(b1-3)Gal(b1-4)GlcNAc(b1-3)Gal(b1-4)GlcNAc(b1-3)Gal(b1-4)GlcNAc(b1-3)Gal(b1-4)GlcNAc(b1-2)Man(a1-6)]Man(b1-4)GlcNAc(b1-4)GlcNAc
# How it was run: as §1
# [9] = biological target: Gal(b1-4)GlcNAc(b1-3)Gal(b1-4)GlcNAc(b1-3)GalNAc
# How it was run: as §1
# [10] = biological target: Gal(b1-4)GlcNAc(b1-3)Gal(b1-4)GlcNAc(b1-3)[Gal(b1-4)GlcNAc(b1-3)Gal(b1-4)GlcNAc(b1-6)]GalNAc
# How it was run: as §1
# [11] = biological target: Gal(b1-4)GlcNAc(b1-3)Gal(b1-4)GlcNAc(b1-6)[Gal(b1-3)]GalNAc
# How it was run: as §1
# [12] = biological target: Gal(b1-4)GlcNAc(b1-3)Gal(b1-4)[Fuc(a1-3)GlcNAc(b1-6)]Gal(b1-4)Glc
# How it was run: as §1
# [13] = biological target: Gal(b1-4)GlcNAc(b1-3)Gal(b1-4)[Fuc(a1-3)]GlcNAc(b1-3)Gal(b1-4)[Fuc(a1-3)]GlcNAc
# How it was run: as §1
# [14] = biological target: Gal(b1-4)GlcNAc(b1-3)GalNAc
# How it was run: as §1
# [15] = biological target: Gal(b1-4)GlcNAc(b1-3)[Fuc(a1-3)GlcNAc(b1-6)]Gal(b1-4)Glc
# How it was run: as §1
# [16] = biological target: Gal(b1-4)GlcNAc(b1-3)[Gal(b1-4)GlcNAc(b1-6)]Gal(b1-4)GlcNAc
# How it was run: as §1
# [17] = biological target: Gal(b1-4)GlcNAc(b1-3)[Gal(b1-4)GlcNAc(b1-6)]GalNAc
# How it was run: as §1
# [18] = biological target: Gal(b1-4)GlcNAc(b1-3)[GlcNAc(b1-6)]Gal(b1-4)GlcNAc
# How it was run: as §1
# [19] = biological target: Gal(b1-4)GlcNAc(b1-6)Gal(b1-4)GlcNAc
# How it was run: as §1
binder,measurement,setting,value
PpFlo1 (Pichia pastoris) (protein) MGSSHHHHHHSSGLVPRGSHMQESGDGDISDSAYACDIDATRYDGFNATIYEFQPGDGRLTRDPVFMSTGYLNRTQLHSITGVTDPGFSIYTPGVPTTTLYGIPNVNWENLLLELKGYFRAEVSGDYGLSLRNIDDSAILFFGKETAFQCCNENSISNEASTDYSLFTIFRQEGDETTNLDSFTYTQYLEAGKYYPVRTFFVNIERHAVFNFTMTLPDGTELTDFHNYIYQFGALDEEQCQA,glycan array binding signal (z-score),[1],0.61
same,glycan array binding signal (z-score),[2],0.305
same,glycan array binding signal (z-score),[3],0.619
same,glycan array binding signal (z-score),[4],-0.216
same,glycan array binding signal (z-score),[5],0.832
same,glycan array binding signal (z-score),[6],0.134
same,glycan array binding signal (z-score),[7],0.43
same,glycan array binding signal (z-score),[8],-0.038
same,glycan array binding signal (z-score),[9],-0.379
same,glycan array binding signal (z-score),[10],0.345
same,glycan array binding signal (z-score),[11],-0.434
same,glycan array binding signal (z-score),[12],-0.424
same,glycan array binding signal (z-score),[13],0.121
same,glycan array binding signal (z-score),[14],-0.405
same,glycan array binding signal (z-score),[15],-0.125
same,glycan array binding signal (z-score),[16],-0.583
same,glycan array binding signal (z-score),[17],-0.202
same,glycan array binding signal (z-score),[18],-0.259
same,glycan array binding signal (z-score),[19],-0.16
